Source: US7517874B2 (priority 2007, dated 2009)

Target: human CB2 receptor (hCB2) (Homo sapiens, UniProt P34972)
Assay: cell-based
Format: cell-based
Conditions: not given

human CB2 receptor (hCB2), sequence (P34972 whole entry): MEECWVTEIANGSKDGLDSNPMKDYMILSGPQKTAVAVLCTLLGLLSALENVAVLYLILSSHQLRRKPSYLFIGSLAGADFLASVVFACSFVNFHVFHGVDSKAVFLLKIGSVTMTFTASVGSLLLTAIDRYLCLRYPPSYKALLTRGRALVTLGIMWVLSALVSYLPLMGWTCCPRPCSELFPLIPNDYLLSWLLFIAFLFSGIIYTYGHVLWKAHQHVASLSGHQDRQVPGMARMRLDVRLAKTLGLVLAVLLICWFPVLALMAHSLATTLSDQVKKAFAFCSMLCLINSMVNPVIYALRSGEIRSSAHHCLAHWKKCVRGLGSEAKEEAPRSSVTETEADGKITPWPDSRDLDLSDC

Row | Structure (SMILES) | EC50 [nM]
1 | CCN(CC)C/C=C/c1nc(C(=O)N[C@H](C(=O)NC)C(C)(C)C)c2n1CCCN(C)C2 [Compound 512, (S,E)-3-(3-(diethylamino)prop-1-enyl)-N-(3,3-dimethyl-1-(methylamino)-1-oxobutan-2-yl)-8-methyl-6,7,8,9-tetrahydro-5H-imidazo[1,5-a][1,4]diazepine-1-carboxamide] | > 10000
2 | CNC(=O)[C@@H](NC(=O)c1nc(-c2ccsc2)n2c1CN(S(=O)(=O)c1ccc(F)cc1)CC2)C(C)(C)C [Compound 109, (S)-N-(3,3-dimethyl-1-(methylamino)-1-oxobutan-2-yl)-7-(4-fluorophenylsulfonyl)-3-(thiophen-3-yl)-5,6,7,8-tetrahydroimidazo[1,5-a]pyrazine-1-carboxamide] | > 10000
3 | Cc1ccc(-c2nc(C(=O)N[C@H](c3nc(C)no3)C(C)(C)C)c3n2CCCN(C(=O)OC(C)(C)C)C3)c(F)c1 [Compound 518, (S)-tert-butyl 1-(2,2-dimethyl-1-(3-methyl-1,2,4-oxadiazol-5-yl)propylcarbamoyl)-3-(2-fluoro-4-methylphenyl)-6,7-dihydro-5H-imidazo[1,5-a][1,4]diazepine-8(9H)-carboxylate] | > 10000
4 | CNC(=O)[C@@H](NC(=O)c1nc(-c2cccc(NS(C)(=O)=O)c2)n2c1CN(C)CCC2)C(C)(C)C [Compound 421, (S)-N-(3,3-dimethyl-1-(methylamino)-1-oxobutan-2-yl)-8-methyl-3-(3-(methylsulfonamido)phenyl)-6,7,8,9-tetrahydro-5H-imidazo[1,5-a][1,4]diazepine-1-carboxamide] | > 10000
5 | CN1CCn2c(-c3ccc(Cl)cc3F)nc(C(=O)N3CCC(C(N)=O)(N4CCOCC4)CC3)c2C1 [Compound 225] | > 10000
6 | CNC(=O)[C@@H](NC(=O)c1nc(-c2cccc(-c3ccccc3)c2)n2c1CN(C)CCC2)C(C)(C)C [Compound 383, (S)-3-(biphenyl-3-yl)-N-(3,3-dimethyl-1-(methylamino)-1-oxobutan-2-yl)-8-methyl-6,7,8,9-tetrahydro-5H-imidazo[1,5-a][1,4]diazepine-1-carboxamide] | > 10000

Same assay, conditions: agonist or inverse agonist at hCB2

Row | Structure (SMILES) | +/− HCB2
7 | CNC(=O)[C@@H](NC(=O)c1nc(-c2ccccc2)n2c1CN(S(=O)(=O)c1ccccc1)CC2)C(C)(C)C [Compound 96, (S)-N-(3,3-dimethyl-1-(methylamino)-1-oxobutan-2-yl)-3-phenyl-7-(phenylsulfonyl)-5,6,7,8-tetrahydroimidazo[1,5-a]pyrazine-1-carboxamide] | −
8 | CNC(=O)[C@@H](NC(=O)c1nc(/C=C/c2ccsc2)n2c1CN(C)CCC2)C(C)(C)C [Compound 446] | +
9 | CNC(=O)[C@@H](NC(=O)c1nc(-c2cc(F)ccc2F)n2c1CN(C)CC2)C(C)(C)C [Compound 250, (S)-3-(2,5-difluorophenyl)-N-(3,3-dimethyl-1-(methylamino)-1-oxobutan-2-yl)-7-methyl-5,6,7,8-tetrahydroimidazo[1,5-a]pyrazine-1-carboxamide] | +
10 | CNC(=O)[C@@H](NC(=O)c1nc(CCc2ccsc2)n2c1CN(C)CCC2)C(C)(C)C [Compound 495, (S)-N-(3,3-dimethyl-1-(methylamino)-1-oxobutan-2-yl)-8-methyl-3-(2-(thiophen-3-yl)ethyl)-6,7,8,9-tetrahydro-5H-imidazo[1,5-a][1,4]diazepine-1-carboxamide] | +
11 | CNC(=O)[C@@H](NC(=O)c1nc(-c2cccs2)n2c1CN(C)CCC2)C(C)(C)C [Compound 349, (S)-N-(3,3-dimethyl-1-(methylamino)-1-oxobutan-2-yl)-8-methyl-3-(thiophen-2-yl)-6,7,8,9-tetrahydro-5H-imidazo[1,5-a][1,4]diazepine-1-carboxamide] | +
12 | CCCNC(=O)[C@@H](NC(=O)c1nc(-c2ccccc2)n2c1CN(C)CCC2)C(C)(C)C [Compound 473, (S)-N-(3,3-dimethyl-1-oxo-1-(propylamino)butan-2-yl)-8-methyl-3-phenyl-6,7,8,9-tetrahydro-5H-imidazo[1,5-a][1,4]diazepine-1-carboxamide] | +
13 | CNC(=O)[C@@H](NC(=O)c1nc(-c2c(F)cccc2OC)n2c1CN(C)CCC2)C(C)(C)C [Compound 365, N-((S)-3,3-dimethyl-1-(methylamino)-1-oxobutan-2-yl)-3-(2-fluoro-6-methoxyphenyl)-8-methyl-6,7,8,9-tetrahydro-5H-imidazo[1,5-a][1,4]diazepine-1-carboxamide] | +
14 | CNC(=O)[C@H](CC(C)(C)C)NC(=O)c1nc(-c2ccc(Cl)cc2F)n2c1CN(C)CCC2 [Compound 544, (S)-3-(4-chloro-2-fluorophenyl)-N-(4,4-dimethyl-1-(methylamino)-1-oxopentan-2-yl)-8-methyl-6,7,8,9-tetrahydro-5H-imidazo[1,5-a][1,4]diazepine-1-carboxamide] | +
15 | CNC(=O)[C@@H](NC(=O)c1nc(-c2cc(C(F)(F)F)ccc2F)n2c1CN(C)CCC2)C(C)(C)C [Compound 363, (S)-N-(3,3-dimethyl-1-(methylamino)-1-oxobutan-2-yl)-3-(2-fluoro-5-(trifluoromethyl)phenyl)-8-methyl-6,7,8,9-tetrahydro-5H-imidazo[1,5-a][1,4]diazepine-1-carboxamide] | +
16 | CNC(=O)[C@@H](NC(=O)c1nc(-c2ccsc2)n2c1CN(C)CCC2)C(C)(C)C [Compound 329, (S)-N-(3,3-dimethyl-1-(methylamino)-1-oxobutan-2-yl)-8-methyl-3-(thiophen-3-yl)-6,7,8,9-tetrahydro-5H-imidazo[1,5-a][1,4]diazepine-1-carboxamide] | +
17 | CNC(=O)[C@@H](NC(=O)c1nc(C2=CCNCC2)n2c1CN(C)CCC2)C(C)(C)C [Compound 460, (S)-N-(3,3-dimethyl-1-(methylamino)-1-oxobutan-2-yl)-8-methyl-3-(1,2,3,6-tetrahydropyridin-4-yl)-6,7,8,9-tetrahydro-5H-imidazo[1,5-a][1,4]diazepine-1-carboxamide] | +
18 | CNC(=O)[C@@H](NC(=O)c1nc(-c2cccc(C(F)(F)F)c2)n2c1CN(C)CCC2)C(C)(C)C [Compound 438, (S)-N-(3,3-dimethyl-1-(methylamino)-1-oxobutan-2-yl)-8-methyl-3-(3-(trifluoromethyl)phenyl)-6,7,8,9-tetrahydro-5H-imidazo[1,5-a][1,4]diazepine-1-carboxamide] | +
19 | CNC(=O)[C@@H](NC(=O)c1nc(-c2ccc(Cl)cc2)n2c1CN(C)CC2)C(C)(C)C [Compound 49, (S)-3-(4-chlorophenyl)-N-(3,3-dimethyl-1-(methylamino)-1-oxobutan-2-yl)-7-methyl-5,6,7,8-tetrahydroimidazo[1,5-a]pyrazine-1-carboxamide] | +
20 | CCc1nc(C(=O)N[C@H](C(=O)NC)C(C)(C)C)c2n1CCCN(C)C2 [Compound 492, (S)-N-(3,3-dimethyl-1-(methylamino)-1-oxobutan-2-yl)-3-ethyl-8-methyl-6,7,8,9-tetrahydro-5H-imidazo[1,5-a][1,4]diazepine-1-carboxamide] | +
21 | CNC(=O)[C@@H](NC(=O)c1nc(-c2ccccc2)n2c1CN(c1cnccn1)CC2)C(C)(C)C [Compound 301, (S)-N-(3,3-dimethyl-1-(methylamino)-1-oxobutan-2-yl)-3-phenyl-7-(pyrazin-2-yl)-5,6,7,8-tetrahydroimidazo[1,5-a]pyrazine-1-carboxamide] | +
22 | CNC(=O)[C@@H](NC(=O)c1nc(-c2cncnc2)n2c1CN(C)CC2)C(C)(C)C [Compound 239, (S)-N-(3,3-dimethyl-1-(methylamino)-1-oxobutan-2-yl)-7-methyl-3-(pyrimidin-5-yl)-5,6,7,8-tetrahydroimidazo[1,5-a]pyrazine-1-carboxamide] | +
23 | CNC(=O)[C@@H](NC(=O)c1nc(C2CCC(F)(F)CC2)n2c1CN(C)CCC2)C(C)(C)C [Compound 528, (S)-3-(4,4-difluorocyclohexyl)-N-(3,3-dimethyl-1-(methylamino)-1-oxobutan-2-yl)-8-methyl-6,7,8,9-tetrahydro-5H-imidazo[1,5-a][1,4]diazepine-1-carboxamide] | +
24 | CNC(=O)[C@@H](NC(=O)c1nc(C(O)c2ccccc2)n2c1CN(C)CC2)C(C)(C)C (stereo partly drawn) [Compound 295, N-((S)-3,3-dimethyl-1-(methylamino)-1-oxobutan-2-yl)-3-(hydroxy(phenyl)methyl)-7-methyl-5,6,7,8-tetrahydroimidazo[1,5-a]pyrazine-1-carboxamide] | +
25 | CNC(=O)[C@H](CC(C)C)NC(=O)c1nc(C2=CCCCO2)n2c1CN(C)CC2 [Compound 280, (S)-3-(3,4-dihydro-2H-pyran-6-yl)-7-methyl-N-(4-methyl-1-(methylamino)-1-oxopentan-2-yl)-5,6,7,8-tetrahydroimidazo[1,5-a]pyrazine-1-carboxamide] | +
26 | CNC(=O)[C@@H](NC(=O)c1nc(-c2ccc(F)cc2F)n2c1CN(C)CC2)C(C)(C)C [Compound 248, (S)-3-(2,4-difluorophenyl)-N-(3,3-dimethyl-1-(methylamino)-1-oxobutan-2-yl)-7-methyl-5,6,7,8-tetrahydroimidazo[1,5-a]pyrazine-1-carboxamide] | +
27 | C[C@@H](NC(=O)c1nc(-c2ccccc2)n2c1CNCC2)C(C)(C)C [Compound 26, (R)-N-(3,3-dimethylbutan-2-yl)-3-phenyl-5,6,7,8-tetrahydroimidazo[1,5-a]pyrazine-1-carboxamide] | +

Same assay, conditions: groups >100 nM-10 μM and >10 μM; cAMP, CHO-K1 hCB2; read-out: EC50 HCB2

Row | Structure (SMILES) | EC50 [nM]
28 | CN1CCn2c(-c3ccc(Cl)cc3F)nc(C(=O)N3CCN(C(=O)c4ccccc4)CC3)c2C1 [Compound 210, (4-benzoylpiperazin-1-yl)(3-(4-chloro-2-fluorophenyl)-7-methyl-5,6,7,8-tetrahydroimidazo[1,5-a]pyrazin-1-yl)methanone] | > 10000
